In PMC4336329 (PLoS ONE, 2015):
The whole screen tested about 310,000 compounds, of which about 14,000 (4.5%) showed an effect of 50% or more. Effects have a minus sign here. The list shows a part of the results.

Biological target: human ether-à-go-go-related gene (hERG) potassium channel (human, UniProt Q12809)
Experiment: primary screen, population patch clamp on CHO cells stably expressing hERG
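Further: peak tail current of the secondary pulse compared with the same well before compound.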

Sequence of human ether-à-go-go-related gene (hERG) potassium channel (Q12809 whole entry, looked up): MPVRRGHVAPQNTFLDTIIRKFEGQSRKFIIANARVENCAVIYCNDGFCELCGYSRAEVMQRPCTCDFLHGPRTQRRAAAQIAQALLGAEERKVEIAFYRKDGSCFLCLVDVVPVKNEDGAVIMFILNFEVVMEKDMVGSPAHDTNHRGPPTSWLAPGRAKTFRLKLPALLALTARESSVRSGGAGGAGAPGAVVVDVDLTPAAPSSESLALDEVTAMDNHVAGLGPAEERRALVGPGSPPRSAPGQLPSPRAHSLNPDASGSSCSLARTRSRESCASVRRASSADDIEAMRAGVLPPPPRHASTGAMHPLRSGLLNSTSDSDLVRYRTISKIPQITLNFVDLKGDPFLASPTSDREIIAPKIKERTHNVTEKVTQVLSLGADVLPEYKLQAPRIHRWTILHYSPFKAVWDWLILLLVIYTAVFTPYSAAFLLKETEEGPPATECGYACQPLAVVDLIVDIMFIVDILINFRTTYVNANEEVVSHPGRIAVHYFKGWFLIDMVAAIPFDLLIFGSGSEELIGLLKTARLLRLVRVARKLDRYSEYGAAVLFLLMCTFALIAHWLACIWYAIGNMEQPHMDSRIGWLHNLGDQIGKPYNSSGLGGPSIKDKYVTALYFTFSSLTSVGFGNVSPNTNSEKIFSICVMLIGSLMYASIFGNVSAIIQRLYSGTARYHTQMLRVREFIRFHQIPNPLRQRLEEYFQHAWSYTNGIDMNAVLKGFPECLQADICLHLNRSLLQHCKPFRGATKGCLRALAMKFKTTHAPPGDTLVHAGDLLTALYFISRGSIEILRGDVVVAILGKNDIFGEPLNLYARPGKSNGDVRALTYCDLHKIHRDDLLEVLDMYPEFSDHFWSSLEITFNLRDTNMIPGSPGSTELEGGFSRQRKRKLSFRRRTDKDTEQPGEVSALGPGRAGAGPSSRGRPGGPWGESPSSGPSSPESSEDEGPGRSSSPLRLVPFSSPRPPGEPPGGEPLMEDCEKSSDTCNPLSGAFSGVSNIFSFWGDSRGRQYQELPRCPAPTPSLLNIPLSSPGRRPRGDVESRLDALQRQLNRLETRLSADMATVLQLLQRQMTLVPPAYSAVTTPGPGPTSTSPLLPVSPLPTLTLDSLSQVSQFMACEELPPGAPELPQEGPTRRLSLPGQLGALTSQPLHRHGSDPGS

SMILES	hERG current change (%, negative = inhibition) at 10uM [%]
Cc1csc2nc(NC(=O)c3ccccc3)sc(=O)c12	4.69
O=c1[nH]c(=O)c2cn[nH]c2[nH]1	1.77
O=C(Nc1ccc(-n2cccn2)cc1)C1CCCCN1Cc1cccc2cccnc12 (stereo not shown)	-35.3
COc1cccc(OC)c1OC(=O)c1cnccn1	16.1
CCOc1ccc(CN(C)CC(=O)Nc2ccc([N+](=O)[O-])cc2Cl)cc1	8.88
CC(=O)c1cccc(NC(=O)Cn2cnc(S(=O)(=O)N3CCC(C)CC3)c2)c1	7.69
Cc1onc(-c2ccccc2)c1C(=O)N/N=C/c1cccc(O)c1	1.94
Cc1cc(=O)[nH]c2cc(Cl)ccc12	9.51
O=C(CNC(=O)COc1ccccc1)NCCc1ccccn1	13.3
COc1ccc(C(=O)NOCc2ccccc2)cc1	4.61
CC1CN(c2nc3c(c(=O)[nH]c(=O)n3C)n2Cc2ccccc2F)CC(C)O1 (stereo not shown)	-5.53
O=C(COC(=O)c1ccc(S(=O)(=O)C(F)F)cc1)NC(=O)NC1CCCCC1	-18.5
COc1cc(NC(=S)NC(=O)c2ccc(C(C)(C)C)cc2)ccc1NC(=O)c1cccs1	25
Cc1ccc(C(=O)CNc2cccc(Cl)c2)cc1	10.6
CCN(CC)c1ccc(NC(=O)CCNC(=O)c2ccco2)cc1	18.5
CC[C@@]12C(=O)N(c3cccc(Br)c3)C(=O)N1[C@H](c1ccc(F)cc1)[C@@H]1C(=O)N(C3CCCCC3)C(=O)[C@@H]12	1.58
COc1ccc(NC(=O)/C(C#N)=C/c2cccnc2)c(OC)c1	13.9
O=C(O)CSc1nc2c(c(C(F)(F)F)n1)CCc1ccccc1-2	23.1
CCSc1nc(O)c(Cc2ccccc2)c(=O)[nH]1	-2.17
Cc1ccnc(NC(=O)CCC(=O)N(CC(=O)NCc2ccc(F)cc2)Cc2ccco2)c1	-30.6

SMILES	hERG current change (%, negative = inhibition) at 10uM [%]
CCCN1C(=O)c2cc(C(=O)O)ccc2C1O (stereo not shown)	12
CCO[C@@H]1OC(C(=O)NC2CC2)=C[C@H](c2ccc3c(c2)OCO3)[C@H]1CCCO	7.22
O=C(Nc1sc2c(c1C(=O)O)CCC2)c1ccccc1F	10.7
COCc1cc(C)n(CC(=O)Nc2c(C)cccc2C)c(=O)c1C#N	-2.06
COc1ccc(-c2nn(-c3ccccc3)cc2CNCc2cccnc2)c(F)c1	-28.1
CCOC(=O)NC(=O)/C(N=Nc1cccc(C(F)(F)F)c1)=C(\C)O	6.35
CN1CCN(S(=O)(=O)c2ccc3c(c2)OCCO3)CC1	12.1
O=C(CSc1nc2cc([N+](=O)[O-])ccc2n1-c1ccc(F)cc1)NC1CCS(=O)(=O)C1 (stereo not shown)	-52.6
COc1ccc(C(=O)N2CC3(C)CC2CC(C)(C)C3)cc1 (stereo not shown)	0.128
CCc1nn(C(C)C(=O)N2CC(C)CC(C)C2)c(=O)c2cc3occc3n12 (stereo not shown)	-7.58
Cc1cccc(C(=O)N2CCc3c([nH]c4ccccc34)C2CC(C)C)n1 (stereo not shown)	3.99
c1ccc2sc(N3CCN(Cc4nnnn4CC4CCCO4)CC3)nc2c1 (stereo not shown)	-18.2
CCOCCCNC(=O)c1cn(C)c2ccc(S(=O)(=O)N3CCCC3)cc2c1=O	8.58
S=C(NCCCn1ccnc1)Nc1ccc(Cl)cc1Cl	-7.65
CCCC(=O)Nc1ccc(N2CCN(C(=O)c3ccccc3C)CC2)cc1	-16.6
CCOc1ccc(-n2c(SCC(=O)Nc3cc(C(=O)O)ccc3Cl)nc3ccccc3c2=O)cc1	28.8
COCc1cc(C)nc(SCC(=O)Nc2ccccc2N2CCOCC2)c1C#N	-0.0594
CN1C(=O)SC(Nc2ccccc2C(=O)O)C1=O (stereo not shown)	4.32
CCOC(=O)c1cnn(-c2ccccc2)c1NC(=O)c1ccccc1	2.12
O=C(NCc1cccs1)c1ccc([N+](=O)[O-])cc1	-31.2

SMILES	hERG current change (%, negative = inhibition) at 10uM [%]
CC(C)c1ccc(OCC(=O)Nc2cccc3c2CCCC3)cc1	0.81
O=C(CSC1CCCCC1)Nc1nccs1	-4.39
CS(=O)(=O)c1ccc(Cl)c(NC(=O)Cc2c(F)cccc2Cl)c1	31.9
O=C1CC(=O)N(Cc2ccccc2)C(=S)N1	10.6
O=C(NC1CCCCC1)c1ccc(CNc2nc(=S)[nH]c3ccccc23)cc1	5.52
O=C(c1ccc(F)cc1)N1CCN(c2ccc([N+](=O)[O-])c(N3CCOCC3)c2)CC1	-58.3
O=C(O)Cn1cc(C(=O)c2ccco2)c2ccccc21	18.6
CCC(=O)NS(=O)(=O)c1cccnc1Nc1ccc(Cl)cc1	13.9
CCOC(=O)c1c(C)[nH]c(N=Nc2cccc(C)c2)c1C	0.74
CCCCOC(=O)COc1ccc(Cl)cc1Cl	13.3
COc1ccc(N=C(C)C2=C(O)c3ccccc3C2=O)cc1	2.67
Cc1cccc(NC(NC(=O)c2ccccn2)C(Cl)(Cl)Cl)c1 (stereo not shown)	-38.3
COc1ccc(C(=O)NCc2nnc(SCC(=O)N3CCOCC3)o2)cc1	13.5
O=C(Nc1ccccc1C(=O)NCCCN1CCOCC1)c1ccc(Cl)cc1	-15.5
COc1cccc(C(C(=O)NC(C)(C)C)N(C(=O)CCC(=O)Nc2cc(C)on2)C(C)C)c1OC (stereo not shown)	17.1
O=C(O)c1ccccc1NC(=O)c1cc2ccccc2oc1=O	19.1
COc1cccc(NC(=O)Cn2cc3c(n2)CCCCC3)c1	-14.7
O=C(Cn1c(COc2ccccc2)nc2ccccc21)Nc1cc(Cl)cc(Cl)c1	29.3
